# Measured values: publication PMC4336329 (PLoS ONE, 2015)
# The campaign covered roughly 310,000 compounds. About 14,000 (4.5%) showed an effect of 50% or more. The effect is printed as a negative number. The list shows a part of the results.
# Target: human ether-à-go-go-related gene (hERG) potassium channel (human, UniProt Q12809)
# Assay: primary screen, population patch clamp on CHO cells stably expressing hERG
# 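Note: peak tail current of the secondary pulse compared with the same well before compound.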
# human ether-à-go-go-related gene (hERG) potassium channel, sequence (Q12809 whole entry, looked up): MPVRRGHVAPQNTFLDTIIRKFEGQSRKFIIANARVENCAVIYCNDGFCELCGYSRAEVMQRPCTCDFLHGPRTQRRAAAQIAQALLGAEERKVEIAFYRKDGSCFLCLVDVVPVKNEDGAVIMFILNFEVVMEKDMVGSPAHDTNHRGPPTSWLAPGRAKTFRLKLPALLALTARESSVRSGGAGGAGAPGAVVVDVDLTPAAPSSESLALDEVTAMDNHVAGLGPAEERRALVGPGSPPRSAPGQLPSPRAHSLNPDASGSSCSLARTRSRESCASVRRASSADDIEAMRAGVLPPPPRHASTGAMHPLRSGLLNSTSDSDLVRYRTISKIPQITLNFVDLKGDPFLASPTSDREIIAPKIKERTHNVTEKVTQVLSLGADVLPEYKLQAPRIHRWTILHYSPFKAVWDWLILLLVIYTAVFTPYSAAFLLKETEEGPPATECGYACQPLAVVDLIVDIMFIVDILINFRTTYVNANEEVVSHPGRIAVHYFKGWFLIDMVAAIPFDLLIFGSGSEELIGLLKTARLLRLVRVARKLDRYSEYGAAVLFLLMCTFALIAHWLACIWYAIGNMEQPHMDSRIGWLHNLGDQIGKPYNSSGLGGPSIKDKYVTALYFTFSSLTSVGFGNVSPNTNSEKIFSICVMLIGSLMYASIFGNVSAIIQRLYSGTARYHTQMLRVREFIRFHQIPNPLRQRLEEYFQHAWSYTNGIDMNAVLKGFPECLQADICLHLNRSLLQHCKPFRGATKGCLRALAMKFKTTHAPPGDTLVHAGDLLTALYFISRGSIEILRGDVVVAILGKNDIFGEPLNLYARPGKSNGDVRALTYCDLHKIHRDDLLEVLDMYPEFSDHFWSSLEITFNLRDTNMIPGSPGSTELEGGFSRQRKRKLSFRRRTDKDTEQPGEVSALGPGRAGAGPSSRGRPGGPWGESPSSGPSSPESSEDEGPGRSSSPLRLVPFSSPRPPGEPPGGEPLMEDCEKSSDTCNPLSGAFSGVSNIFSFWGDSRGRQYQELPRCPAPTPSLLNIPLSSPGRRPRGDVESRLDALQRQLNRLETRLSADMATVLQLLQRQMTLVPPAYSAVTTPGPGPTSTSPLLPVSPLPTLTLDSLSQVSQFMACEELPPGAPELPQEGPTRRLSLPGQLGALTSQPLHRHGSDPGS
row,SMILES,"hERG current change (%, negative = inhibition) at 10uM"
1,COc1cccc(-c2ncc3ccccc3c2COC(=O)c2cccc(Br)c2)c1,5.74%
2,Cc1cc(OCC(=O)NC2CC(C)(C)NC(C)(C)C2)c2c(C)cc(=O)oc2c1,-5.66%
3,Cc1noc(C)c1COc1ccccc1C(=O)NCCc1ccc(S(N)(=O)=O)cc1,-1.27%
4,Cc1c(OCC(=O)N[C@H](C(=O)O)c2ccccc2)ccc2c3c(c(=O)oc12)CCCC3,19.8%
5,O=C(NC(Cc1ccccc1)C(=O)O)/C(=C/c1ccccc1)NC(=O)c1ccco1 (centres unmarked),6.28%
6,CC1CCc2c(sc(NC(=O)c3nc4ncccn4n3)c2C#N)C1 (centres unmarked),4.71%
7,O=C(O)C1CCN(C(=O)COc2ccc(Br)cc2)CC1,38%
8,C=CCOc1ccc(CNn2cn[nH]c2=S)cc1,9.3%
9,Cc1c(C(=O)N2CCCC(C)C2)sc2ncnc(N3CCCCC3C)c12 (centres unmarked),-21%
10,CC(C)Oc1cc(S(=O)(=O)N2CCCCC2)ccc1N,2.99%
11,O=C(Nc1ccc(Br)cn1)c1ccc2nccnc2c1,-0.493%
12,C=CCNc1nc(C(=O)OCC(=O)Nc2ccccc2C(F)(F)F)cs1,2.65%
13,COC(=O)C1C(=O)C=C(N2CCOCC2)CC1(C)C (centres unmarked),6.2%
14,COC(=O)c1ccccc1NC(=O)CN(C)Cc1ccccc1,4.5%
15,COc1cc(NS(=O)(=O)c2ccc(NC(=O)c3ccc(Cl)cc3Cl)cc2)ncn1,-9.46%
16,COc1ccccc1OCCCOc1ccc([N+](=O)[O-])cc1Cl,3.35%
17,Cc1cccc(C(=O)OCC(=O)NC(=O)NCc2ccccc2)c1,-7.32%
18,O=C(COC(=O)c1ccccc1[N+](=O)[O-])Nc1cccnc1Cl,9.34%
19,CC(=O)N1CC(C)Sc2ccc(S(=O)(=O)NCCc3ccccc3)cc21 (centres unmarked),-0.777%

row,SMILES,"hERG current change (%, negative = inhibition) at 10uM"
1,CCC(C)(C)NC(=O)C(c1ccc(OC)cc1)N(C(=O)CCC(=O)Nc1cc(C)on1)c1ccc(F)cc1 (centres unmarked),15.7%
2,COc1ccccc1NC(=O)CON=C(N)CC(=O)NC1CCCCC1,-1.99%
3,CN(CC(=O)Nc1cccc(F)c1)C(=O)CN1c2cccc3cccc(c23)S1(=O)=O,-2.66%
4,CCCCNC(=S)NC(=O)c1ccc([N+](=O)[O-])cc1,-40.4%
5,Cc1cc(=O)[nH]c(SCC(=O)Nc2ccc(C(=O)O)cc2)n1,5.37%
6,O=C(/C=C/c1ccccc1Cl)Nc1ccncc1,-3.65%
7,Cc1cccc(C)c1OCc1nnc2c3cnn(C)c3ncn12,-25.2%
8,CC(=O)c1cccc(NC(=O)N2CCC(C(=O)c3ccc(F)cc3)CC2)c1,-28.1%
9,COc1ccc(CN2CCn3nc(C(=O)NC4CC4)cc3C2=O)cc1,4.43%
10,CCOc1ccc(NC(=O)CSc2nc3ccccc3c(=O)n2Cc2cccs2)cc1,13.6%
11,CCOC(=O)c1cc2cc(-c3c(C(=O)OCC)oc4cc(O)cc(O)c4c3=O)ccc2o1,-17.2%
12,O=C(CSc1ccccc1C(=O)O)c1ccc(Cl)cc1,16.6%
13,CCCCC1(CC)C(=O)NC(=O)NC1=Nc1ccc(OC)cc1 (centres unmarked),-0.068%
14,CN1c2ccccc2C(=O)/C(=C\Nc2ccc(F)cc2F)S1(=O)=O,12.4%
15,COc1cc(OC)c(OC)cc1CNC(=O)c1ccc(S(=O)(=O)N2CCCCC2)cc1,-20.8%
16,C=CCn1c(SCC(=O)N2CCN(c3ccc(F)cc3)CC2)nnc1-c1ccco1,-70.2%
17,COc1ccccc1N1CCN(C2CCCN(C(=O)c3ccoc3)C2)CC1 (centres unmarked),-19.7%
18,O=C1CC(=O)C(n2cncn2)C(c2cccc(Cl)c2)C1 (centres unmarked),15.6%
19,COc1ccc2[nH]c(CN3CCC(n4nccc4NC(=O)C4CC4)CC3)c(C)c2c1,-63.3%

row,SMILES,"hERG current change (%, negative = inhibition) at 10uM"
1,Cc1ccccc1OCC(=O)NC(Cc1c[nH]c2ccccc12)C(=O)O (centres unmarked),20.4%
2,Nc1ccc(-c2nc3ncccc3o2)c(O)c1,8.03%
3,CCc1ccc(/C=c2\s/c(=C\C(=O)C(C)(C)C)[nH]c2=O)cc1,15.2%
4,CCCn1c(SCC(=O)Nc2nnc(C(C)C)s2)nc2c1c(=O)n(C)c(=O)n2C,9.55%
5,COc1ccc(CCNc2nc(C)c(C(C)=O)s2)cc1OC,21.6%
6,O=C(O)C(=O)O.c1ccc(OCCN2CCOCC2)cc1,12%
7,COC(=O)Nc1ccc2c(c1)ncn2C1CCCCC1,-23.3%
8,O=C1CCS/C(=N\N=C\c2ccc(Cl)cc2Cl)N1,-16.5%
9,Cc1ccc(OCc2nnc(NC(=O)c3ccco3)s2)c(C)c1,13.4%
10,O=C(O)c1ccc(-c2nc(-c3ccc(Cl)cc3Cl)cs2)cc1,18.5%
11,CN(C)S(=O)(=O)N1CCN(c2ccc([N+](=O)[O-])cc2)CC1,-76.7%
12,Cn1cc(Br)c(C(=O)NC2CCCCCC2)n1,2.74%
13,CCN(CC)c1ccc(/C=C2/C(=O)NC(=O)N(Cc3ccco3)C2=O)cc1,-25%
14,Cc1cccc(OP(=O)(Nc2c(C)n(C)n(-c3ccccc3)c2=O)Oc2cccc(C)c2)c1,-20.5%
15,O=C(COC(=O)CN1C(=O)C2CCCCC2C1=O)NCc1ccc(Cl)cc1Cl (centres unmarked),-2.1%
16,O=C(CSc1nc2ccccc2c(=O)n1-c1ccccc1Cl)Nc1cccc(S(=O)(=O)N2CCOCC2)c1,-6.76%
17,Cc1cc(NC(=O)CSc2nc(N)c(NC(=O)c3ccccc3)c(=O)[nH]2)no1,19.9%
18,CC(=O)Oc1ccccc1C(=O)N(C1CCCCC1)C1CCCCC1,15.3%
